This is one part of the list.
The sequences below were run on PfAP2-HC AP2 domain (GST-tagged) (assay: gcPBM binding intensity (ln(normalized median fluorescence intensity)); higher = stronger DNA binding).
Method in brief: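 Probes on an Agilent 4 × 180k array were primer-extended, double-stranded and 36 bp long, taken from intergenic genomic regions, with negative controls added. GST-tagged P. falciparum DNA-binding domains from E. coli, about 25 μg on average, were applied to the array for 1 h in 1× PBS containing 1% milk, 0.2 mg/ml BSA, 0.5% salmon testes DNA and 0.03% Triton X-100. Binding intensity, obtained after Alexa488 anti-GST antibody detection and a 488 nm scan, is the highest Masliner-normalised natural-log median intensity across replicate spots of either probe orientation.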

Row | Sequence | gcPBM binding intensity (ln)
1 | ATACATATCTACCTATGTACATAATACAACAAAGAT [XGTACX_site323] | 9.72
2 | GAATAAATACCGGTGTGTACTTAAATCATTCACGAA [XGTACX_site3174] | 9.8
3 | GCACATATGAATATAATACACACTTGTATTATTAAT [CACACA_site1841] | 9.8
4 | ATTTTATATACAAAATGTACATATTTATTATATATG [XGTACX_site6732] | 9.68
5 | GGAGCTATCTCCTGCACACACAATTTTTTTTTTTTT [CACACA_site2240] | 9.95
6 | AAGGATACGCAAAAATGTACAAAATGCTTATAAATA [XGTACX_site984] | 9.68
7 | TTTTTTTTTAATAAAATTATAATAAATATGAAATTA [XGTACX_negctrl_site369] | 9.12
8 | ATATATATATATATATGTACACATATATATACTCAC [XGTACX_site8043] | 9.94
9 | TGAGTATATAAATACACACACATATATATATTTTAA [CACACA_site5130] | 9.96
10 | TTTTATTTTTAAGGATGTACTCAATTGTTTATATAC [XGTACX_site3965] | 9.7
11 | ATACACTTAATATTATGTACATATATAAAAAAAATA [XGTACX_site1500] | 9.66
12 | TATATTTAAATTCTTTCAAATCATGTTGTAATTTTT [CACACA_negctrl_site1349] | 9.62
13 | AATTGTATGTATGCCTGTACATATGTCTATCTTAAG [XGTACX_site1927] | 9.75
14 | TATTTTATATGAGGCACACAAATTTTAATTGTTATT [CACACA_site725] | 9.63
15 | ATTTATTTATTTTTTTGTACTTATAATTTTTATTAT [XGTACX_site2656] | 9.8
16 | TATAAAAATAATATTACACACATGTAAAATGGGGGT [CACACA_site9071] | 10.2
17 | AGGAATATCGAAAACTGTACTTGTATGTTTCATAAA [XGTACX_site6143] | 9.57
18 | TATTTATCTATATATTGTACTTATTAGTCTTAATGT [XGTACX_site4242] | 9.77
19 | TAAATTTATGGACACACACACATATATATATATATA [CACACA_site4620] | 10.3
20 | TCTTTTTTAATATAATATATTTTTATTAAGTAAATC [TGCATGCA_negctrl_site408] | 9.47
21 | TTATATATAGATCACACACACACACCGGTTTTAAAA [CACACA_site4220] | 11.2
22 | AAATTTTAATTAGGAACACACATATATATATATATA [CACACA_site5673] | 9.69

Row | Sequence | gcPBM binding intensity (ln)
23 | CATAAAAATGGATACACACACATAATATATTTATAT [CACACA_site7669] | 10.5
24 | ACAATATATTCATATTGTACATAAAATAAGGCTAAC [XGTACX_site6728] | 9.83
25 | TTTTCAGAAAAGAGAAACTTTATTTTTCACAACCGA [TGCATGCA_negctrl_site389] | 9.41
26 | ATTTTTTATGAAAATAAACACACGATTTATTATATA [CACACA_site1312] | 9.56
27 | TAAAAAATTATTAAACGTACGAGACTTTTTATCAGT [XGTACX_site2219] | 9.56
28 | TGTAGTCATTAGTCAAATTAGAATTAAATATATATT [GTGCAC_negctrl_site643] | 9.44
29 | AAAAAATCACGACACACACACACACTAAAAAAAAAA [CACACA_site6792] | 11.3
30 | AATGTTTTTTTTTTTTTTTTTTTTTATTTATTGTTA [CACACA_negctrl_site505] | 9.56
31 | ATCAAATAATAGCAAACACACAAAAAATAAAAAAAA [CACACA_site4146] | 9.93
32 | ATTTTTTGGAAAAGAAGTACAATGGATTTATACGTT [XGTACX_site891] | 9.44
33 | TAACATATAATATTATGTACATATATACATATATAA [XGTACX_site7467] | 9.51
34 | TATTTCAATATATACCTTTGCTTTTTTAATATACTT [XGTACX_negctrl_site556] | 9.77
35 | TCAATATAAATTAGTTGTACAGTTTTTTTTAATTAT [XGTACX_site6358] | 9.54
36 | TTTAAATAATCTAGGTGTACTTTCCTTTATAAATGT [XGTACX_site7859] | 9.52
37 | AGAATACATATATGAACACACAGAGTTTTAAAAAAT [CACACA_site2735] | 10.1
38 | TACAGACAGAAATGCACACACATATATATATATATA [CACACA_site2283] | 9.97
39 | GAAAAGCATAGATGCACACATATATATATATATATA [CACACA_site2169] | 9.85
40 | GTGTTAATTTTAAATTGTACAAAATTTATATGATTT [XGTACX_site348] | 9.56
41 | ATATACTTTTTTTTTTTTTTTTTAACGTTATTTATG [CACACA_negctrl_site1277] | 9.64
42 | TTACACATATATATAAATATATATAAATATATATAT [CACACA_negctrl_site150] | 9.55
43 | AAAATATATGAAAACAGTACATATAAAAATTAAAAA [XGTACX_site2594] | 9.73
44 | ATTAATTTTGGTTCATGTACATAAGAAATAAACTCT [XGTACX_site4534] | 9.42

Row | Sequence | gcPBM binding intensity (ln)
45 | ATTTTTATACGTTTTTTTTTTTTTTTTTTTTATTTA [CACACA_negctrl_site1142] | 9.65
46 | TATAACATAATATAGACACACACATGTACTTATGCC [CACACA_site8547] | 10.4
47 | TTTATATTTCAATTTTGTGCTTCGCAAATTGAGAGG [TGCATGCA_negctrl_site327] | 9.39
48 | CACTACATTATGTCATAAATGCATACATAAACATAT [GTGCAC_negctrl_site513] | 9.71
49 | TAAAAATTATATATCACACATATATGTCAGTATACA [CACACA_site4624] | 9.74
50 | ATTTATATGTGGAGCAGTACGCACTCTCACAATTAA [XGTACX_site7252] | 9.44
51 | TAATATATGTATATATGTACATATAAATGTTATAGA [XGTACX_site2721] | 9.69
52 | TTGGTATAAAATTATAGTACATAAGGTAAATATAAA [XGTACX_site4698] | 9.79
53 | GATGTTCATCACTACACACACAAAGAAATATATATA [CACACA_site2684] | 10.2
54 | AAAGAAAAAAAATATAAAAAATAAAAAATAAAACAA [CACACA_negctrl_site374] | 9.55
55 | TTGTATTTCCTTAGGAGTACACATAAATAAGTAAAT [XGTACX_site6677] | 9.54
56 | GTAAAATATATAAAATGTACATATATTATATATATA [XGTACX_site489] | 9.64
57 | CATTTAAAAGATAAAACACACATACTAATAAAAAAC [CACACA_site5417] | 9.93
58 | TTTCTTTATTAAAATATTTTACATATATAATATACG [TGCATGCA_negctrl_site564] | 9.63
59 | CTTCTCTTTTTTATCATGCACTTTTTGTATAATAAT [GTGCAC_site9834] | 9.83
60 | ACATATATTATTATATGTACATATATTAATTATATA [XGTACX_site3400] | 9.55
61 | ATCATTTTTAAAGGAACACACAAAAAAAATTAAAAT [CACACA_site4878] | 9.74
62 | ACTCTCTTATATTAAACACACATATATATCTGTATA [CACACA_site5489] | 9.99
63 | AATTTAATATAATGCACACATAAAACAAAAACAAAA [CACACA_site529] | 10.1
64 | TACGTAAATGTGTGTGTGCACGTTATATATTAATAT [GTGCAC_site9976] | 10.2
65 | TATTATCGTTCTCATACACACAAAATATACATACAC [CACACA_site2643] | 10.2
66 | CATTTTTTATTTCCTTGTACGAATAAAATATATTTA [XGTACX_site6844] | 9.38

Row | Sequence | gcPBM binding intensity (ln)
67 | ATAAACATATAAAAAGTGCATATTCATATATCTACT | 9.73
68 | ATGGCCTCATTTGGGACACACAACATAAAATATATA [CACACA_site753] | 9.8
69 | AATACACTAAACAAAAGTACAAAAATATTCTACAAA [XGTACX_site5162] | 9.73
70 | AAATATATTTTATGTACACACAAAATTAAGGGATAT [CACACA_site4881] | 10.2
71 | TGTTAATTATAAATTTGTACTTATTTTTACAAAATA [XGTACX_site6598] | 9.48
72 | TTATAATAATATAATACATGCATATATATTTAAATA [TGCATGCA_site903] | 9.6
73 | TCACTATAATAATTTACACACATTTTAAGAAAATGT [CACACA_site3530] | 9.92
74 | AAAATGAATAAAAATACACACATATCTGTTATTCTC [CACACA_site5474] | 9.84
75 | GAATATTAATTCATACGTACTTATATATAAGTATAT [XGTACX_site3707] | 9.71
76 | TATAAAAATGGGCACACACACACATATATATATTTA [CACACA_site1527] | 10.6
77 | ATATATATATATATAACACACGCAAAAAAATTAAAT [CACACA_site8395] | 10.1
78 | AAAAAAAAAAAAATCACACATAATATAGAATATGTA [CACACA_site4993] | 9.51
79 | AACTTAAAAAATAAATGTACATAAATATAAACATAT [XGTACX_site2987] | 9.73
80 | TATTTAAATTTTAAGTGTACATATTTATTTATATCT [XGTACX_site6545] | 9.59
81 | AAAAAAAAAAAAAACATACACACAATAAAATAGGGG [CACACA_site2398] | 10
82 | ATTTTTTTTTTTTTTTTTTTTTTATTCTTGTAATCT [CACACA_negctrl_site1039] | 9.41
83 | CCTTTTTATCTTTTTGTGCACAGACCTTTTTTAAAT | 9.87
84 | ATGTAAGTTGTGCATTCACACACATATATATATATA [CACACA_site9086] | 9.99
85 | ATATAATAATAAAGACGTACAAATGTATATATATAC [XGTACX_site3123] | 9.9
86 | ATTTTTTTTTTTTATAGTGGATCCACATTTGCCATT [CACACA_negctrl_site1284] | 9.62
87 | ATATATTTTAATTGTTGTACATATTAAATAAATAGG [XGTACX_site2311] | 9.49
88 | TATATTTTATATATGGTGCAACTTTTATTTAAATAA | 9.33

Reference: the supplement of paper PMC11417369
